# PubChem BioAssay AID1347041 (National Center for Advancing Translational Sciences (NCATS), 2019)
# About 740 (0.15%) of roughly 480,000 compounds were called active. The shares of active, inactive and inconclusive entries below differ from those in the screen. No stated cut-off is given here; in the data, active means activity change below about -30%; inconclusive means mostly about -25% to -30%; inactive means weaker than that. Some compounds were tested as several samples or in several runs, with calls that do not always agree.
# Biological target: L-lactate dehydrogenase A chain (Homo sapiens) (UniProt P00338)
# Assay: qHTS assay for inhibitors of human lactate dehydrogenase;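 further: values are at about 110 or 230 µM; plate controls were DMSO wells for no effect and wells without enzyme for full effect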
# Settings: purified LDHA, NADH/diaphorase-resazurin fluorescence; active compounds read low
# Outline: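 LDH5 2 nM; NADH 0.06 mM, pyruvate 0.2 mM; 200 mM Tris pH 7.4, EDTA, Tween-20; 5 min RT. Detection: diaphorase 0.133 mg/mL + resazurin 37 µM, fluorescence ex540/em590 at 0 and 20 min; normalized to enzyme-free and DMSO wells.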
row,SMILES,activity change
1,Cc1c(C(=O)N(C)c2ccccc2)sc2nc(-c3ccc(F)cc3)cn12,inactive: 7.21%
2,O=C(CN1CCN(S(=O)(=O)c2ccc(F)cc2)CC1)NC1CCCC1,inactive: 0.286%
3,CN(C)c1ccc(C(=O)NNC(=O)c2ccc(Cl)cc2)cc1,active: -48.4%
4,Cc1ccc(-c2nc(=N)sn2Cc2ccccc2)cc1,active: -80.9%
5,O=S(=O)(Cc1nnnn1-c1ccccc1)c1ccccc1,active: -41.4%
6,CCc1ccc(NC(=O)CCCn2cnc3c2c(=O)n(C)c(=O)n3C)cc1,inconclusive: -25.1%
7,Cc1ccc2nsnc2c1NC(=O)c1cc(Br)ccc1Cl,inconclusive: -25.1%
8,O=S(=O)(c1ccc(Cl)cc1)N1CCN(c2nc(-c3cccs3)nc3ccccc23)CC1,inconclusive: -26.5%
9,CCc1ccc(OCc2nnc(SCCN3CCOCC3)n2CC)cc1,inconclusive: -25.5%
10,COc1cc2nc(-c3ccc(C)cc3)oc(=O)c2cc1OC,active: -30.4%
11,COCc1nn2c(=O)c(NC(=O)c3ccc(F)cc3)cnc2s1,inactive: 4.02%
12,CCc1nn(CCCC(=O)N2CCN(c3cccc(C)c3C)CC2)c(=O)c2cc3occc3n12,inactive: -0.258%
13,CN(C)C(=O)C(Cl)c1ccccc1 (stereo unspecified),inconclusive: -26.5%
14,CCCCC1CCC(C(=O)Nc2ccc(OC)c3ncccc23)CC1 (stereo unspecified),active: -30.1%
15,COc1ccc(CN2CCC(N3CC(C)OC(C)C3)CC2)c(OC)c1 (stereo unspecified),active: -32%
16,CSc1ccccc1NC(=O)CN(C)C(=O)c1cc(S(=O)(=O)N2CCOCC2)ccc1Cl,inactive: 1.15%
17,CC(C)c1ccc(NC(=O)CSc2nc3ncccc3[nH]2)cc1,inconclusive: -25.9%
18,CCCNC(=O)C12CC3CC(C1)CC(c1ccccc1)(C3)C2,inconclusive: -27.8%
19,O=C(CN1CCSCC1)N/N=C/c1ccc(F)cc1,inconclusive: -28.4%
20,CC(C)C(=O)N1CCN(C(=O)CCc2c[nH]c3ccccc23)CC1,inconclusive: -26.6%
21,Cc1ccc(S(=O)(=O)N(C)C)cc1NC(=S)NC1CCCC(C)C1C (stereo unspecified),inactive: 0.0355%

row,SMILES,activity change
1,CN(CC(=O)Nc1ccccc1Cl)CC(=O)c1c(N)n(Cc2ccccc2)c(=O)n(C)c1=O,inactive: -3.02%
2,CC(=O)c1c(C)[nH]c(C(=O)NC2CCCCC2)c1C,inactive: 2.03%
3,Cc1noc(C)c1COC(=O)c1ccccc1Sc1ccccc1C#N,inactive: -5.54%
4,Cc1ccc(-c2cc(C(=O)Nc3nnc(C4CC4)s3)c3ccccc3n2)o1,inactive: 2.67%
5,CSc1ccc(/C=N/Nc2cccc(Cl)c2)cc1,inconclusive: -27.9%
6,CCc1cccc(NC(=O)CN(C)C2=NS(=O)(=O)c3ccccc32)c1,inconclusive: -28%
7,COCc1c(C(=O)N2CCN(Cc3nc4ccccc4s3)CC2)oc2ccccc12,active: -32.6%
8,CC(C)COC(=O)C(C)Oc1ccc2c(=O)c(-c3ccccc3)coc2c1 (stereo unspecified),inconclusive: -27.3%
9,Cn1c(SCC(=O)Nc2cccc(C(=O)O)c2)nnc1-c1cc2cc(Br)ccc2o1,active: -34.2%
10,CC(=O)c1cc(-c2ccccc2)n(CCC(=O)Nc2nc3c(C)cccc3s2)c1C,inconclusive: -25.4%
11,CNCCOc1ccccc1C(C)(C)C,inconclusive: -30%
12,O=C(CCc1ccccc1)Nc1ccc(NC(=O)c2ccco2)cc1,inconclusive: -25.1%
13,CCNC(=S)N1CCN(CC)CC1,inconclusive: -27%
14,CCN(CC)c1nc2ccccc2c(N)c1-c1ccccc1,inconclusive: -29.5%
15,CCCCC(=O)Nc1ccc(C(=O)NNC(=O)c2ccc(C)c(Br)c2)cc1,active: -46.7%
16,COc1ccc2c(c1)C(=O)N(c1ccc(C)cc1C)C(=O)C2,inactive: -0.125%
17,CC1CN(c2ccccc2)c2nc3c(c(=O)[nH]c(=O)n3C)n2C1 (stereo unspecified),inconclusive: -27.5%
18,Clc1ccc(SCCn2ccnc2)cc1,inconclusive: -26.4%
19,COC(=O)c1ccnc(/C=N/O)c1,inconclusive: -25.1%
20,CCN(CC)C(=O)C1CCN(Cc2cccc(OCc3ccccc3)c2)CC1,inconclusive: -27.6%
21,Cc1ccc(C(C)C)cc1OCCn1cncn1,inconclusive: -28%

row,SMILES,activity change
1,CCN(CC)CC(=O)Nc1c2c(nc3ccccc13)N(C)CC2,inconclusive: -26%
2,O=C(Nc1cc(F)ccc1F)c1ccccc1-c1ccccc1,inconclusive: -26.4%
3,COc1cc(/C=C/C(=O)O)cc(S(=O)(=O)Nc2cc(Cl)c(Cl)cc2Cl)c1OC,inconclusive: -34.4%
4,C[N+](C)(C)CCOC(N)=O,inactive: -4.19%
5,COc1ccc(Br)cc1CN1CCCC(C(=O)N2CCCCC2)C1 (stereo unspecified),inconclusive: -31%
6,NC(=O)CN1CCN(c2ccccc2F)CC1,inactive: -8.94%
7,COc1cccc(-n2c(C)c(C)c3c2ncn2nc(-c4cccs4)nc32)c1,active: -36%
8,Cc1ccc(S(=O)(=O)N2CCOCC2)cc1NC(=O)CNCC1CCCCC1,inconclusive: -29.7%
9,CCc1ccc(CCC(=O)N2CCN(S(=O)(=O)c3ccc(Br)cc3)CC2)cc1,inactive: -0.901%
10,CC(C)=CCCC(C)CCC/C(C)=N/NC(N)=O (stereo unspecified),inactive: -2.77%
11,COc1cccc(OC)c1OCCN(C)C,inconclusive: -25%
12,Cc1ccc(NC(=O)CSc2nc(NS(=O)(=O)c3ccccc3)cc(=O)[nH]2)cc1,inconclusive: -25.4%
13,O=C(c1cccnc1)N1CCN(Cc2ccccc2Br)CC1,active: -31.5%
14,CCOC(=O)c1sc(N)c(SC#N)c1C,inconclusive: -27.3%
15,CCN1CCN(CC(O)COC(c2ccccc2)c2ccccc2C)CC1 (stereo unspecified),inconclusive: -26.3%
16,COc1ccc(CN2CCNC(=O)C2CC(=O)NCc2cc(C)n(C)n2)c(F)c1 (stereo unspecified),inactive: 2.5%
17,CCCCc1nc2ccccc2c(NC(=O)CNC(C)(C)C)c1CCC,inconclusive: -27.7%
18,O=[N+]([O-])c1cc([N+](=O)[O-])c2oc(-c3ccccc3)c(Br)c2c1O,active: -68.2%
19,CCOC(=O)C(O)(NC(=O)c1c(F)cccc1F)C(F)(F)F (stereo unspecified),inconclusive: -28.2%
